The source gives no read counts; variants with many changes may rest on few reads.
B1: LINE1-mini (parent)
chain: GGCAGAGCUCAACACAGCGUGGCAAAGUGGCUGUGGCUAGACUGCC

Variants of: B1
Assay: self-cleavage, relative activity (ratio to wild type); higher = more cleavage; in vitro, sequencing; the parent is a self-cleaving ribozyme

Row | Variant | self-cleavage
1 | A6U C8U C13U C18U G21U G40A | 0.08
2 | C13A C15U A16C G17C U20C | 0.11
3 | A14C G29A A39C C42U | 0.04
4 | G2U C10U A11C C13G G35U C42A | 0.02
5 | C18U A26U G36A | 0.09
6 | A16U G21C G33U A39U | 0.02
7 | A6C A12G A14C G21A | 0.01
8 | G5C A12C A25G U43C | 0.01
9 | G7U C8A A11C G17A | 0.02
10 | A4G G7U G19A G21U | 0.02
11 | A4U G21U C31G | 0.03
12 | A6U C18G G21C G22A A25U | 0.19
13 | G5C C15G G22A C23A A25C C42U | 0.01
14 | G1A C10A G22U A24G U38G C42G | 0.04
15 | A11G U28A G33U | 0.02
16 | A25C G40U C46U | 0.12
17 | C8U G27C G30C U32G G33A | 0.16
18 | C23A C31U U34G A39G | 0.01
19 | G2A G7C A26G | 0.93
20 | C3A A4G G5C A16G G30U U38G C42U U43A | 0.02
21 | C10G C31U G33A | 0.03
22 | C15U G40U A41U U43G | 0.12
23 | C10A A11U U32A | 0.01
24 | G7U C15G C18A G33C C42U | 0.01

Row | Variant | self-cleavage
25 | C8U U9G U43C | 0.03
26 | C10U G27A G29U | 0.05
27 | A4C G30A C42G | 0.03
28 | G2C A6C U20C C23U G30A G35C C46G | 0.06
29 | A6C G7U G29A C31G | 0.01
30 | C13U U20G U28C G44U | 0.09
31 | G7U C23A U32A G44U | 0.2
32 | U9G A26C C37A | 0.05
33 | G1U A4G A26G | 0.14
34 | A16U C23G U38G | 0
35 | C8A C10A G29U | 0.02
36 | G5C C31A G44U | 0.03
37 | C8A G36A C42U | 2.93
38 | G17A G22U G29U G36C | 0.03
39 | G5C C13U C23U G30U G33C | 0.03
40 | G19A U34A C46A | 0.06
41 | U20C G30A G44A | 0.18
42 | G2A C23G G35A U38C | 0.07
43 | G5U A24U G30U | 0.05
44 | A11U G21U U34A | 0.07
45 | G2U C31A G33C | 0.03
46 | G21A U32C U43G | 0.31
47 | C13U U34G G40C | 0.15
48 | G5C G21U C37U C46A | 0.02

Row | Variant | self-cleavage
49 | A6G C18A G22A U32A | 0.01
50 | C23U G33C G40C C46U | 0.02
51 | G2A C10U G22U | 0.1
52 | U9G U38G C42U G44U | 0.03
53 | G5A A6U C42A C45G | 0.06
54 | G2C A26C A41U | 0.18
55 | C3G C8G G17A | 0.24
56 | A4C A6U C10A C15U C18G G33C G44A | 0.01
57 | G2U C10G A39U | 0.01
58 | A25U G36C A41G | 0.07
59 | G2U C15G G17A G36A | 0.03
60 | C3A G5U C8U C10A A41C | 0.07
61 | G19U U32C G35C A41U | 0.01
62 | G5C U9G G30U | 0.06
63 | G2U G44U C46G | 0.03
64 | G1C U9C C10A G30A U34C C45U | 0.01
65 | A4C A24G A26U U32G | 0.05
66 | G1U C13U A16C G35U | 0.01
67 | U9G C18U G21C G33C | 0.01
68 | G19A G33U U38G | 0.05
69 | U20G A26G C46A | 0.04
70 | C15A G40C U43G | 0.03
71 | G2U G19C G21U G22A | 0.33
72 | G19A U43A C46A | 0.45

Row | Variant | self-cleavage
73 | A11C C18U C23U | 0.02
74 | G1C A6C C13G C31G U34A | 0
75 | G2A C15U G22C A39C | 0.3
76 | G2U C10U A12U C15A C23U A41C | 0.01
77 | A14C G29C U38A | 0.04
78 | A4G A6G C15U G22C G27U | 0.05
79 | A12G A24U A26U G44C | 0.02
80 | G21U C23U U34G | 0.24
81 | G17A G22C A24C A25C G36U G44C | 0.05
82 | C3U G7A C8U C23A A24U | 0.14
83 | G1A A6C C10A G19A A24G | 0.1
84 | G5C G7A C10U A16C C18U A24U C46G | 0.03
85 | G7A A24C G27U | 0.02
86 | C3A G19A C23A G30A | 0.23
87 | G2U C8U U32A G33A G44A | 0.09
88 | C8G C37U A41G C42U | 0.16
89 | G2U A6G U20C C45U | 0.02
90 | C13U G30U U43A | 0.08
91 | U28C U34A G40C | 0.08
92 | G2C G7C U28G U32A | 0.1
93 | C3A A16G G21U G30U | 0.03
94 | U9A A16U C37G U38A | 0.04
95 | C13G C18A C23A C46G | 0.03
96 | A16G G22U C23A | 1.02

Row | Variant | self-cleavage
97 | G17A G36U G44U | 0.01
98 | A4C G5C A6C C10U | 0.04
99 | G1U G5C U9C C42U | 0.01
100 | G2U C3A A26U G33U | 0.09
101 | A24G A26C G35A A39G | 0.09
102 | C13U A14G A16U G33U U38G | 0.02
103 | A12U G17A G22C A24U G29C C31A | 0.02
104 | G7C U9G C10A U38A C42G | 0
105 | C10U G27U U34G C42U U43A | 0.01
106 | C15U G17A G29C | 0.03
107 | A6U A25C U34C | 0.19
108 | A4C A12G G29U | 0.13
109 | G5U G21U U43C | 0.08
110 | C10U C31A C37G | 0.01
111 | U9C C13A C37A | 0
112 | A4G C8A A12C A26G U43C | 0.02
113 | U9A C18U C31U G44U | 0.03
114 | G17U G35U C42U | 0.05
115 | C15U A25U G30A A41G | 0.05
116 | G22C C23A G36U | 0.08
117 | A6U G40C U43G | 0.09
118 | G1A G5U G17A C23U A41C | 0.06
119 | A4G U34A C37G | 0.04
120 | C15U C23G A26U U38C | 0.06

Row | Variant | self-cleavage
121 | G7C C10U G27U G33U A39U | 0.02
122 | C3U A39G C45G | 0.02
123 | A11G U20C G33A U38G G40A | 0
124 | A6U C15A A16G C37G | 0.05
125 | G5A U20C G33U U38C A39U | 0.02
126 | G2A G17A U34G | 0.19
127 | C18A G29U G36U | 0.03
128 | C3G G19C G33C | 0.09
129 | A11C C15A U20G | 0.02
130 | A14C G22U A41G | 0.03
131 | C8G A11G C37U G40A G44U | 0.01
132 | C3G C10U C15A C18A U28G | 0.03
133 | G2A G7A C18U | 1.93
134 | C10G C18A C23A A24C G35C C37U | 0.03
135 | C13A G22C G36U U38A | 0.02
136 | G5C A6G C42A C45G C46A | 0.6
137 | C10U A14G G21C | 0.14
138 | G27C U38G A39G C42G | 0.01
139 | A6C C10A C31A | 0.04
140 | G1C A11G C46U | 0.06
141 | G5U G35U C42G | 0.04
142 | A6U A12U C13G C37U | 0.08
143 | A4G C13G G22U A39G C42G U43A C45U | 0.03
144 | C13U G21U G33U U38C | 0.02

Row | Variant | self-cleavage
145 | G5A A12U G33U G40U | 0.04
146 | C3G C23A G40U | 0.21
147 | C3G G21U C31U G36C C37A | 0.01
148 | C23G A25C C31G | 0
149 | C3A U20A A26G | 0.32
150 | C3U A12U G22U C23A C31A G36C | 0.02
151 | G2U C23G U34C | 0.01
152 | C15A G17A C23A G29A | 0.01
153 | G19A C31A A39C | 0.14
154 | G2C A14U G44A | 0.04
155 | G17C A26G A39U C45U | 0.04
156 | G17C A26U G36C C37A | 0.06
157 | C10U A14G U38A | 0.02
158 | C23U G30C C45G | 0.03
159 | G5U A11U G22A | 0.05
160 | G7U C8A C13A | 0.23
161 | A4G C13G G44U C46U | 0.01
162 | A4G C15U C18U A26G C31U G44U C45U | 0.01
163 | G2A C37G U43A | 0.18
164 | U9A G22A G30A C46G | 0
165 | A4U G22C A24G | 0.07
166 | G1A C10A A16C G27U | 0.07
167 | C3A A4U C18A G36U | 0.14
